# The supplement of paper PMC5655136
# Read counts after selection give these values, which scatter widely.
# System: NB7
# Assay: fold depletion of shRNA, plasmid library share / infected cells without Dox share (9 days) (ratio); higher = more depleted after infection (more toxic, leaky expression from a Tet-inducible vector; NB7 is a neuroblastoma line without caspase-8)
# [1] = shRNA pool: CD95 ORF + CD95 3'UTR + Venus libraries
# [2] = shRNA pool: CD95L ORF + CD95L 3'UTR + Venus libraries
# 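Note: shRNA barcodes quantified by deep sequencing of PCR amplicons from cellular DNA, counts expressed as percent of each subpool, ratio averaged over two biological duplicates.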
Sequence,fold depletion of shRNA [1],fold depletion of shRNA [2]
GTGCTCATCTTAATGGCCTAA,8.23,–
GTGCTGATCATTTATATGTCA,–,2.36
GTGCTGCTGCCCGACAACCAC,–,0.409
GTGCTTAAAAATCATTGATTG,–,0.672
GTGCTTCGCCCGCTACCCCGA,1.12,0.294
GTGGACAGCAGTGCCAGCTCT,–,2.62
GTGGACCTTGAGACCACAGGG,–,0.837
GTGGCAATAAATTTATCTGAT,1.12,–
GTGGCCCATTTAACAGGCAAG,–,0.756
GTGGCCTTGTGATCAATGAAA,–,0.633
GTGGGCCTTGCTACCTCAAGG,–,1.04
GTGGTGCCCATCCTGGTCGAG,0.567,0.802
GTGTATGACTAAAGAGAGAAT,–,0.44
GTGTATGCAGAGGATGAAAGA,2.39,–
GTGTATGCATTTTACTGGCTC,13.3,–
GTGTATGTTAGTACAAATGTC,1.39,–
GTGTATTTCCAGTGCAATTGT,–,2.98
GTGTCAATGAAGCCAAAATAG,0.904,–
GTGTCATATTATACAATATTT,1.3,–
GTGTCCGGCGAGGGCGAGGGC,0.782,0.709
GTGTGATGAAGGACATGGCTT,1.2,–
GTGTGTATGACTAAAGAGAGA,–,2.29
GTGTGTGTATGACTAAAGAGA,–,1.5
GTGTGTGTGTATGACTAAAGA,–,0.698
GTGTGTGTGTGTATGACTAAA,–,1.31

Sequence,fold depletion of shRNA [1],fold depletion of shRNA [2]
GTGTGTGTGTGTGTGTATGAC,–,11.4
GTGTGTGTGTGTGTGTGTATG,–,6.73
GTGTGTGTGTGTGTGTGTGTG,–,2.88
GTGTTAATGCCCAAGTGACTG,0.565,–
GTGTTCAATCTTACCAGTGCT,–,0.803
GTGTTCTACACTCATCTTAGT,–,2.45
GTGTTTGAAAAGATTCTTAAT,1.11,–
GTGTTTGGAATTATAAAATAT,0.98,–
GTTAAAGGCTTTGTTCGAAAG,3.95,–
GTTACAGGCACCGAGAATGTT,–,1.24
GTTACTACAGTTGAGACTCAG,1.51,–
GTTACTGAACAGGCAGGCCAC,0.628,–
GTTAGTACAAATGTCTATCCA,1.45,–
GTTATAAACTGAAGCAGATAC,1.48,–
GTTCAACTGCTTCGTAATTGG,0.558,–
GTTCAATAATGTCCCATGTAA,1.04,–
GTTCAATCTTACCAGTGCTGA,–,3.71
GTTCACCGGGGTGGTGCCCAT,1.22,1.65
GTTCAGCGTGTCCGGCGAGGG,0.773,0.516
GTTCGAAAGAATGGTGTCAAT,3.06,–
GTTCGAGGGCGACACCCTGGT,1.45,0.761
GTTCTACACTCATCTTAGTGC,–,2.39
GTTCTCATGAATCTCCAACTT,1.42,–
GTTCTGAGTATATGCAATTAG,1.23,–
GTTCTGGTTGCCTTGGTAGGA,–,0.854

Sequence,fold depletion of shRNA [1],fold depletion of shRNA [2]
GTTCTTACGTCTGTTGCTAGA,4.4,–
GTTCTTCCCTGTCCAACCTCT,–,74.1
GTTGACTTGAGTAAATATATC,0.975,–
GTTGAGACTCAGAACTTGGAA,4.46,–
GTTGCATTTGGTCAAGATTTT,–,5.73
GTTGCCTTGGTAGGATTGGGC,–,2.37
GTTGCTAGATTATCGTCCAAA,1.33,–
GTTGGGAAAACAAACTTCATC,2.41,–
GTTGTATTCAGTGAGGGTCTT,–,0.625
GTTGTGACCTGAGGATTTAAG,–,9.44
GTTTAAAATCTAGTTGGGAAA,1.48,–
GTTTAAATATCTTTGAAAGTT,0.699,–
GTTTATAACTCTGAGAAGATC,2.03,–
GTTTATGAGCCAGACAAATGG,–,1.98
GTTTATTGGTGTCATATTATA,1.15,–
GTTTCAGCTCTTCCACCTACA,–,3.21
GTTTCTAAGATTTAAGATTCT,0.808,–
GTTTGAAAAGATTCTTAATAG,0.791,–
GTTTGACTATTATATATGTGT,0.9,–
GTTTGCAATCAAAGATGATAA,1.86,–
GTTTGGAATTATAAAATATAG,0.818,–
GTTTGGAGATACTAACTGCTC,4.44,–
GTTTGGGTGAAGAGAAAGGAA,0.817,–
GTTTGTATTAAATGTGAATTT,0.973,–
GTTTTCCTATAATATAATAAA,–,1.02
